Assay results: the RNAGym collection of RNA variant scans (doi:10.1073/pnas.2313332121)
Variants at the background level are over-represented here.

B1: TPR 5TU (parent)
chain: GGAUCUUCUCGAUCUAACAAAAAAGACAAAUCUGCCACAAAGCUUGAGAGCAUCUUCGGAUGCAGAGGCGGCAGCCUUCGGUGGCGCGAUAGCGCCAACGUUCUCAACUAUGACACGCAAAACGCGUGCUCCGUUGAAUGGAGUUUAUCAUG

Variants of: B1
Assay: polymerase ribozyme fitness, log enrichment relative to wild type (log ratio); higher = more active; in vitro selection for triplet polymerase activity
In short: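 Fitness measures genotype enrichment against wild-type enrichment on a logarithmic scale, with inverse-variance-weighted averaging of replicates. The logarithm is base 2, and genotypes were kept only with ≥10 input reads and ≥1 read per output in Illumina sequencing. The sequenced libraries came from one triplicate in vitro selection round, including frozen incubation at −7 °C, of PCR-built, transcribed mutant libraries of each subunit of a heterodimeric triplet polymerase ribozyme.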

| Variant | polymerase ribozyme fitness (log ratio) |
| --- | --- |
| A39C A41C G86U U139G | ≤ -4.2 |
| A37G A60C | -3.15 |
| C36U A39C G42A A49G G50C C76A C96U G136A G140U | ≤ -4.2 |
| A37C G92A U146G | -4.01 |
| A37G U45A C96U | ≤ -4.2 |
| A39C G81C C85U C116A G141C | ≤ -4.2 |
| A39G A40G A41U U44A G62A G136A U139C G141C | ≤ -4.2 |
| A37C U44G G58A A73U C108U A142C | ≤ -4.2 |
| A37C G48A C79A U90G C96G A150C | ≤ -4.2 |
| A37U C103A | -3.85 |
| C36U C99U U145A | -1.47 |
| C38A G50U C57U A64C G71C C95G C103A G128U U130G C149G | ≤ -4.2 |
| C38U C87U A115U C125U | -3.34 |
| A37C A49C G59A C87A G140C | ≤ -4.2 |
| A39U C54U C57G U61A C95G C125G | ≤ -4.2 |
| C38A G50C G80C G83A A91U G100A | ≤ -4.2 |
| C38G U101G U102G | ≤ -4.2 |
| C36U C96G | -2.56 |
| C38A U55G A60G | 0.135 |
| A39C G48C G67U C87A G126U C131U A142U | ≤ -4.2 |
| C36U U44A A122C | -4.15 |

| Variant | polymerase ribozyme fitness (log ratio) |
| --- | --- |
| C38U C95A C108U | -3.39 |
| A37G C108U C125G | ≤ -4.2 |
| C36U C79A C87U A115C A122C C131G | ≤ -4.2 |
| C38G U146C | -0.518 |
| A37G G46C A52G C114G A119C | ≤ -4.2 |
| A39C C85G C105G C125G U134C | ≤ -4.2 |
| A39G U53G C54G A73G G83A G84A G117C U151G G152U | ≤ -4.2 |
| A37C G62A C63U C72U A113G G128A | ≤ -4.2 |
| C38A G68A C95U | ≤ -4.2 |
| A39U A60G U77A G81U C93A | ≤ -4.2 |
| A37C C96G A106G | -0.258 |
| A37C G83A A115U C129A | ≤ -4.2 |
| A39C U56A G59C | -2.08 |
| A39G G83A G141C | -3.09 |
| A37G C95A U127G | -4.15 |
| A39U C43A C75G C87U C118U | ≤ -4.2 |
| A37U C79U G84U | ≤ -4.2 |
| A39C U44A G92A A106G A107G U146G | ≤ -4.2 |
| C36U C93G C118U A122C A137G | ≤ -4.2 |
| A37U A122U C129G G143A U145A | ≤ -4.2 |
| C38A U78G C87U C103G G133U G141A | ≤ -4.2 |

| Variant | polymerase ribozyme fitness (log ratio) |
| --- | --- |
| A37U C51A G58A C95U G124U U134A | ≤ -4.2 |
| A37C C63G G65A C129A U139G U151A | ≤ -4.2 |
| C38A C118U A120C G141A | -0.525 |
| A39C A40C A49C | ≤ -4.2 |
| A37U U56A C99U G143U | -3.88 |
| C36U G141U A142C | ≤ -4.2 |
| C38U U56A A60U C95A | -1.13 |
| C36G U61A A120G | ≤ -4.2 |
| A39U A41U U56A G71A | ≤ -4.2 |
| A37C U53A C54G G133C G140C | ≤ -4.2 |
| C38A A49C G88C C108G | ≤ -4.2 |
| C38U C75A G80U | -4.14 |
| C38U C108G | ≤ -4.2 |
| C38U G48A C54A G83A C125G U135A | ≤ -4.2 |
| A37C C72U A91C G143A | ≤ -4.2 |
| A39C C43U C96U C103A | ≤ -4.2 |
| A37G A60G G68C A142C | ≤ -4.2 |
| A39G G59A C116U U144C | -4.19 |
| A37G G42C G88U A115G | ≤ -4.2 |
| C38G C63G C69A C76U C96U U101C G136U | ≤ -4.2 |
| C38U U56A G58A G84U C87U C105U C108G | ≤ -4.2 |

| Variant | polymerase ribozyme fitness (log ratio) |
| --- | --- |
| A37U U55C G68A U78A C85U | ≤ -4.2 |
| A37G C54U U55A G86A A89U U109G A138G | ≤ -4.2 |
| A39U A49C C85G C87G G94C G133A U144G | ≤ -4.2 |
| A37G A49C A64U A73C U77C G86U G128A A142C | ≤ -4.2 |
| C36U G58A C87A C131U G143A | ≤ -4.2 |
| A39G C105G | -3.19 |
| A39C G133C U146A | -3.57 |
| C36U A39U G50C A52U A66G G92C G143C | ≤ -4.2 |
| C38U U61G G92U C116G G140A U144C | ≤ -4.2 |
| A39U A66C G68A C108U A121U U134A G143U | ≤ -4.2 |
| A37U G50A G74U A120C C129A G143C | ≤ -4.2 |
| C36U A40G C43G U55A A91C G126A G141U | ≤ -4.2 |
| C38U G46A C79A A98G U102G A107U A121G U130G | ≤ -4.2 |
| C36U A66G C93A | ≤ -4.2 |
| C38G G133C A147C | -2.55 |
| C38U C54A A60U | -0.76 |
| C38U A66U A91U U109A | ≤ -4.2 |
| C36U A41G C95A A122G | -0.35 |
| A39G G94C | -2.32 |
| A37C C69U G88C | ≤ -4.2 |
| C38U A138G G140U A147G U148G U151G | ≤ -4.2 |
